From PMC2173498 (The Journal of Cell Biology, 2002)

Molecular target: the molecule itself
Assay: SEC

B1: GST-M9 (domain or fragment)
chain: not shown
  stoichiometry N: 2
